Among the data in article PMC9303752 are stoichiometry N values, retold here.

Several values for one entry are separate records, joined by “and”; a condition that tells them apart may be missing. Equal values may be shown once.

For the assay, the target named is T1, Properdin (purified from human serum, Quidel A412) (human), P27918.
T1 chain: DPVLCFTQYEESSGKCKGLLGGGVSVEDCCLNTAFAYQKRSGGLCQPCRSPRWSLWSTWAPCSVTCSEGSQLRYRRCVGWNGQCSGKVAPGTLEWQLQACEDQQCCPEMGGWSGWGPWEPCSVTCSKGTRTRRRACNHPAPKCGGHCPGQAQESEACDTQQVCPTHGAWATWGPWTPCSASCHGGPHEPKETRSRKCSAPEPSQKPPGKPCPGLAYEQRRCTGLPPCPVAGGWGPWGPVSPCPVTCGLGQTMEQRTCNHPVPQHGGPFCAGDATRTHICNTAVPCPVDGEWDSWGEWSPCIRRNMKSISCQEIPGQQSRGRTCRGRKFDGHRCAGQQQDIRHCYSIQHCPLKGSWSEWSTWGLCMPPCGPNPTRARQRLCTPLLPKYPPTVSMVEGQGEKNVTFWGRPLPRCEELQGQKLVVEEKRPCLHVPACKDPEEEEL
The experiment in a line: SEC. Particulars: remark: other sources report otherwise.

B1: Properdin (purified from human serum, Quidel A412), P27918 28-469 (natural protein)
chain: DPVLCFTQYEESSGKCKGLLGGGVSVEDCCLNTAFAYQKRSGGLCQPCRSPRWSLWSTWAPCSVTCSEGSQLRYRRCVGWNGQCSGKVAPGTLEWQLQACEDQQCCPEMGGWSGWGPWEPCSVTCSKGTRTRRRACNHPAPKCGGHCPGQAQESEACDTQQVCPTHGAWATWGPWTPCSASCHGGPHEPKETRSRKCSAPEPSQKPPGKPCPGLAYEQRRCTGLPPCPVAGGWGPWGPVSPCPVTCGLGQTMEQRTCNHPVPQHGGPFCAGDATRTHICNTAVPCPVDGEWDSWGEWSPCIRRNMKSISCQEIPGQQSRGRTCRGRKFDGHRCAGQQQDIRHCYSIQHCPLKGSWSEWSTWGLCMPPCGPNPTRARQRLCTPLLPKYPPTVSMVEGQGEKNVTFWGRPLPRCEELQGQKLVVEEKRPCLHVPACKDPEEEEL
B1: the stoichiometry N is 2 and 3 and 4.
